Source: paper PMC5538626, “Structural and functional analysis of the GABARAP interaction motif (GIM)” (EMBO Reports, 2017)
Positions count from the first letter of the chain named. These are yes or no findings as the source states them, for the method shown. For part of these data: In cells and extracts the contact can be indirect. Some results given as binding are weak or reduced against the parent protein; the word gives no strength. For part of these data: Where a sequence is shown, tags or fusion partners need not be part of it. Values belong to the substance of their own block, whether it stands above or below them.

By UniProt entry, the sequences of proteins in these tests, tags left out. Where a name states a change or a piece, a line headed by the entry shows the natural chain unless it says otherwise. Residues count along the entry.
UniProt Q9BXW4, residues 1-126: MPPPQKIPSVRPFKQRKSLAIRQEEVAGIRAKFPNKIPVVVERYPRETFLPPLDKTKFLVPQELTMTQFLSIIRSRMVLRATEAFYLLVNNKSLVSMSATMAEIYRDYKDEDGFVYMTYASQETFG
UniProt Q8TDY2: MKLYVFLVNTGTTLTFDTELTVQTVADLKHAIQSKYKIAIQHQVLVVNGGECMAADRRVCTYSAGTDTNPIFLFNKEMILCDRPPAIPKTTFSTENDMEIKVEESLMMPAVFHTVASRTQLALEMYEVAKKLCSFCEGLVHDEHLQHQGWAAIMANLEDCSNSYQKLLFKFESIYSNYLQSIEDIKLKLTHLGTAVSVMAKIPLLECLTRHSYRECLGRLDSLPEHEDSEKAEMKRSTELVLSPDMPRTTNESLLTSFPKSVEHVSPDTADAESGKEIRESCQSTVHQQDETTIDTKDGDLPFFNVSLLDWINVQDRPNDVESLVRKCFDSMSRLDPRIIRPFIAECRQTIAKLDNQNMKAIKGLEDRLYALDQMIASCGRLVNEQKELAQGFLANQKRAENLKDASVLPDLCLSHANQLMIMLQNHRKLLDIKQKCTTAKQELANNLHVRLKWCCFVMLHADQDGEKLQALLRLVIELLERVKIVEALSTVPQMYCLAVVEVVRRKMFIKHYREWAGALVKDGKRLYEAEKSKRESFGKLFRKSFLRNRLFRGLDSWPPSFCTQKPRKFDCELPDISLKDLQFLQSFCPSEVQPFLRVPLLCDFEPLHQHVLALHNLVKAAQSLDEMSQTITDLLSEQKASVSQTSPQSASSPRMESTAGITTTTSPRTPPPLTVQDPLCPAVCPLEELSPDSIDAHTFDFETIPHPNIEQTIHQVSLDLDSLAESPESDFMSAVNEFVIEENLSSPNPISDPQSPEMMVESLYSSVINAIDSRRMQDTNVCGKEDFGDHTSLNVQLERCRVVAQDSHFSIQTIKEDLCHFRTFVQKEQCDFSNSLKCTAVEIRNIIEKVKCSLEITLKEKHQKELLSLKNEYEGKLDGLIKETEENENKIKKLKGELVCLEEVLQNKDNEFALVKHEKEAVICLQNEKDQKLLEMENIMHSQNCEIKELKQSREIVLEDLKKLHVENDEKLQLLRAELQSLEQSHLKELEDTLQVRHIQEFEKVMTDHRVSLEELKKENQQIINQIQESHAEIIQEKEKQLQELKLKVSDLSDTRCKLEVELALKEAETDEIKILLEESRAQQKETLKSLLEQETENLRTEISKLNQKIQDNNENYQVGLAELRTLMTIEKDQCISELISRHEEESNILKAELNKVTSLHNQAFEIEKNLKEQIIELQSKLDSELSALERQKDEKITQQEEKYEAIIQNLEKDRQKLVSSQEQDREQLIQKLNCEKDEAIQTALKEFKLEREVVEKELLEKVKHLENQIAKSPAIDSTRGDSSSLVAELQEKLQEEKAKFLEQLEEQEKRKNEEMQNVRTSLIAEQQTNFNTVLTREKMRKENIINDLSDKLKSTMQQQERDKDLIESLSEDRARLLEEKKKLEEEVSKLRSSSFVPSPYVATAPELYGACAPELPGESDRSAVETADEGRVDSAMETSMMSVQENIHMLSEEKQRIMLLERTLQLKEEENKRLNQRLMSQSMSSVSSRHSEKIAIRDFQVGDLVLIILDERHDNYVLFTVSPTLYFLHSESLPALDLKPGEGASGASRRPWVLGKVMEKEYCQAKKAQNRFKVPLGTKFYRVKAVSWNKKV
UniProt Q7TSI1: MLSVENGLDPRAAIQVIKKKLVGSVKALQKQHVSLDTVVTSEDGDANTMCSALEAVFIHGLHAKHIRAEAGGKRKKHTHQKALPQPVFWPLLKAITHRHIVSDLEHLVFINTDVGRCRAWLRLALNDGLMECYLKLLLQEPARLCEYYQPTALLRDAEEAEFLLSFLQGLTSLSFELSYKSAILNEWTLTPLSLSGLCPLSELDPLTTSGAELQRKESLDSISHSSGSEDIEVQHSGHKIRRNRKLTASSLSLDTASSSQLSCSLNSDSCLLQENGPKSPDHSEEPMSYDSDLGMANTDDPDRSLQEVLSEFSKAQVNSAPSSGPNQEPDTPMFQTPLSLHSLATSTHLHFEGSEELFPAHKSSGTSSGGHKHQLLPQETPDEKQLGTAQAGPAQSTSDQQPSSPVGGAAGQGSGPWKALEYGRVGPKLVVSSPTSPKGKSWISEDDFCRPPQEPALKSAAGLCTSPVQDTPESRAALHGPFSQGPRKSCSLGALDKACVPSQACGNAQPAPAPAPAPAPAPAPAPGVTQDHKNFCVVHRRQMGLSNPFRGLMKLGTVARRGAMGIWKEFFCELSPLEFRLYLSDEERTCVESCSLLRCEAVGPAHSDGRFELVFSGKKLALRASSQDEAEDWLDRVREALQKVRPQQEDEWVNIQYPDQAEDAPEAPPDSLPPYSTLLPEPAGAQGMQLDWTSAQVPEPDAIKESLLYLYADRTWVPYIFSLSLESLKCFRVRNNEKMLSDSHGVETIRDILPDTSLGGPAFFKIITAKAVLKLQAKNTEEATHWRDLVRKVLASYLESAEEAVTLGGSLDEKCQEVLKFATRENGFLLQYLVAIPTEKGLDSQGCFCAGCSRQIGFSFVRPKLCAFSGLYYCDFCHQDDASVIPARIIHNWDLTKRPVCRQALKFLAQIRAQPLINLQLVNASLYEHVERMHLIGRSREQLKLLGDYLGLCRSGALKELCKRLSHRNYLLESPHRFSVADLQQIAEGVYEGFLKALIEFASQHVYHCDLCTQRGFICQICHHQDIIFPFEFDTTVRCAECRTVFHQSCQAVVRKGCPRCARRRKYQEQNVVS

Key:
[1] = target: T1, Biotinylated PLEKHM1-LIR V638L peptide (…); assay: peptide or protein array; biotinylated peptides immobilised on streptavidin-coated 96-well plates, 1 uM His6-tagged mATG8 in PBS, 0.1% Tween-20, 1% BSA, 1 h at 8 C, detected with anti-His-HRP and TMB at 450 nm; expressed relative to the WT LIR peptide; both purified
T1 sequence (peptide, biotin (position not stated)): EDEWVNLQY

[2] = target: T2, Biotinylated PLEKHM1-LIR V638I peptide (…); assay: as above
T2 sequence (peptide, biotin (position not stated)): EDEWVNIQY

[3] = target: PLEKHM1‐mutLIR peptide (…), biotinylated; assay: ELISA; called peptide array: biotinylated peptides immobilised on streptavidin-coated 96-well plates; 1 μM His6-mATG8 in PBS, 0.1% Tween-20, 1% BSA, 1 h, 8°C; anti-His-HRP, TMB, absorbance at 450 nm; both purified
[4] = target: PLEKHM1‐LIR W635A peptide (biotinylated 9-mer) (UniProt Q9Y4G2); assay: as above
[5] = target: PLEKHM1‐LIR V638A peptide (biotinylated 9-mer) (UniProt Q9Y4G2); assay: as above
[6] = target: PLEKHM1‐LIR N637G peptide (biotinylated 9-mer) (UniProt Q9Y4G2); assay: as above
[7] = target: PLEKHM1‐LIR V636A peptide (biotinylated 9-mer) (UniProt Q9Y4G2); assay: as above
[8] = target: PLEKHM1‐LIR N637P peptide (biotinylated 9-mer) (UniProt Q9Y4G2); assay: as above
GFP‐LC3C (human) [9] = target: GFP‐LC3C (human) (UniProt Q9BXW4); assay: co-IP; HEK293T cells co-expressing GFP-mATG8 and PLEKHM1-WT-Flag; GFP-Trap beads; anti-Flag blot
[10] = target: 3xFlag‐FIP200 E703V/I705V (human) (UniProt Q8TDY2); assay: co-IP; HEK293 cells overexpressing 3xFlag-FIP200 forms; anti-Flag beads; blot for endogenous GABARAP and LC3B
GFP‐FUNDC1 E19V/L21V = target: T3, GFP‐FUNDC1 E19V/L21V (UniProt Q8IVP5); assay: co-IP; HEK293 cells overexpressing GFP-FUNDC1 forms, vehicle (DMSO) or 20 μM CCCP for 2 h; anti-GFP beads; blot for endogenous GABARAP and LC3B
T3 sequence: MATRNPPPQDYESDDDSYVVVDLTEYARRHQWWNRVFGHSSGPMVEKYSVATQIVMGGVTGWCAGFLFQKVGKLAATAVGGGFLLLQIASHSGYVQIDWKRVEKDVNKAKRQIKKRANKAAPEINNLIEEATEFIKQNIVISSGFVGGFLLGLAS

GFP‐FUNDC1 L21V = target: T4, GFP‐FUNDC1 L21V (UniProt Q8IVP5); assay: as above
T4 sequence: T3 sequence with V19E

GFP‐FUNDC1 E19V = target: T5, GFP‐FUNDC1 E19V (UniProt Q8IVP5); assay: as above
T5 sequence: T3 sequence with V21L

[11] = target: endogenous PLEKHM1 (mouse embryonic fibroblasts) (mouse (endogenous in MEFs)) (UniProt Q7TSI1); assay: co-IP; mouse embryonic fibroblasts, 4 h KU-0063794 (10 μM) plus chloroquine (20 μM); NP-40 lysis buffer; endogenous PLEKHM1 immunoprecipitated; blot for endogenous LC3B and GABARAP
[12] = target: endogenous PLEKHM1 (mouse embryonic fibroblasts) (mouse (endogenous in MEFs)) (UniProt Q7TSI1); assay: condition: only cells treated with vehicle (DMSO) only, without Ku + CQ; co-IP; as a9 but cells treated with vehicle (DMSO) only
GFP‐LC3C (human) [13] = target: GFP‐LC3C (human) (UniProt Q9BXW4); assay: co-IP; HeLa cells overexpressing GFP-mATG8, 4 h KU-0063794 (10 μM) plus chloroquine (20 μM); GFP-Trap beads; blot for endogenous proteins
GFP‐LC3A (human) = GFP‐LC3A (human) (UniProt Q9H492); assay: as above
GFP‐GABARAP‐L2 (human) = GFP‐GABARAP‐L2 (human) (UniProt P60520); assay: as above

binding [1]: binds
binding [2]: binds
Substance: 6xHis-tagged GABARAP (from UniProt O95166 1-117)

binding [3]: no binding (tested: 1 μM)
Substance: 6xHis‐tagged GABARAP (from UniProt O95166 1-117)

binding [3]: no binding (tested: 1 μM)
binding [4]: no binding (tested: 1 μM)
Substance: 6xHis‐tagged GABARAP‐L2 (from UniProt P60520 1-117)

binding [10]: binds
binding (GFP‐FUNDC1 E19V/L21V): binds
binding (GFP‐FUNDC1 L21V): binds
binding (GFP‐FUNDC1 E19V): binds
Substance: endogenous GABARAP (HEK293) (from UniProt O95166 1-117)

binding [11]: binds
binding [12]: no binding
Substance: endogenous GABARAP (mouse embryonic fibroblasts) (from UniProt Q9DCD6 1-117)

More lines, now with the values behind:

Substance: 6xHis-tagged GABARAP-L2 (from UniProt P60520 1-117)
binding [1]: binds
binding [2]: binds

Substance: 6xHis‐tagged LC3A (from UniProt Q9H492 1-121)
binding [3]: no binding (tested: 1 μM)

Substance: 6xHis‐tagged LC3C (from UniProt Q9BXW4 1-126)
binding [3]: no binding (tested: 1 μM)
binding [5]: no binding (tested: 1 μM)
binding [6]: no binding (tested: 1 μM)
binding [7]: no binding (tested: 1 μM)
binding [8]: no binding (tested: 1 μM)
binding [4]: no binding (tested: 1 μM)

Substance: PLEKHM1‐WT‐Flag (from UniProt Q9Y4G2 1-1056)
binding (GFP‐LC3C (human) [9]): binds

Substance: endogenous p62/SQSTM1 (HeLa) (from UniProt Q13501 1-440)
binding (GFP‐LC3C (human) [13]): binds
binding (GFP‐LC3A (human)): binds
binding (GFP‐GABARAP‐L2 (human)): binds
